In paper PMC5934895:
No constants are given. Whether binding was seen depends on the method and setting. Binding seen in cells or lysates may run through a third protein. Some binding calls cover weakened binding; strength is not graded here. Tags and fused reporters may be left off the sequences shown.

By UniProt entry, the sequences of proteins in these tests, tags left out. Residues count along the entry.
UniProt P08670, residues 1-96: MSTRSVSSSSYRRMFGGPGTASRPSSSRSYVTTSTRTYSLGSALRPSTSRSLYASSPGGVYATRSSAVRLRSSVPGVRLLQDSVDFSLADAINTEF

Molecular target: GFP-tagged N-terminal vimentin fragment (1-96-GFP) (UniProt P08670)
Assay: co-IP; GFP-coprecipitation: cell lysates in NP-40 lysis buffer (10 mM Tris/HCl pH 7.5, 150 mM NaCl, 5 mM EDTA, 0.5% NP-40) on GFP-trap A beads, 4 °C, 15-120 min, three washes; immunoblot

B1: FLAG-tagged Nup88(1-541) (domain or fragment, UniProt Q99567 1-541)
chain: MAAAEGPVGDGELWQTWLPNHVVFLRLREGLKNQSPTEAEKPASSSLPSSPPPQLLTRNVVFGLGGELFLWDGEDSSFLVVRLRGPSGGGEEPALSQYQRLLCINPPLFEIYQVLLSPTQHHVALIGIKGLMVLELPKRWGKNSEFEGGKSTVNCSTTPVAERFFTSSTSLTLKHAAWYPSEILDPHVVLLTSDNVIRIYSLREPQTPTNVIILSEAEEESLVLNKGRAYTASLGETAVAFDFGPLAAVPKTLFGQNGKDEVVAYPLYILYENGETFLTYISLLHSPGNIGKLLGPLPMHPAAEDNYGYDACAVLCLPCVPNILVIATESGMLYHCVVLEGEEEDDHTSEKSWDSRIDLIPSLYVFECVELELALKLASGEDDPFDSDFSCPVKLHRDPKCPSRYHCTHEAGVHSVGLTWIHKLHKFLGSDEEDKDSLQELSTEQKCFVEHILCTKPLPCRQPAPIRGFWIVPDILGPTMICITSTYECLIWPLLSTVHPASPPLLCTREDVEVAESPLRVLAETPDSFEKHIRSILQRSV
In the case of B1, the binding is reported as “binds”.
